The whole screen tested about 310,000 compounds, of which about 2,200 (0.71%) showed an effect of 50% or more. The effect is printed as a negative number. The list shows a part of the results.

human ether-à-go-go-related gene (hERG) potassium channel, sequence (Q12809 whole entry, looked up): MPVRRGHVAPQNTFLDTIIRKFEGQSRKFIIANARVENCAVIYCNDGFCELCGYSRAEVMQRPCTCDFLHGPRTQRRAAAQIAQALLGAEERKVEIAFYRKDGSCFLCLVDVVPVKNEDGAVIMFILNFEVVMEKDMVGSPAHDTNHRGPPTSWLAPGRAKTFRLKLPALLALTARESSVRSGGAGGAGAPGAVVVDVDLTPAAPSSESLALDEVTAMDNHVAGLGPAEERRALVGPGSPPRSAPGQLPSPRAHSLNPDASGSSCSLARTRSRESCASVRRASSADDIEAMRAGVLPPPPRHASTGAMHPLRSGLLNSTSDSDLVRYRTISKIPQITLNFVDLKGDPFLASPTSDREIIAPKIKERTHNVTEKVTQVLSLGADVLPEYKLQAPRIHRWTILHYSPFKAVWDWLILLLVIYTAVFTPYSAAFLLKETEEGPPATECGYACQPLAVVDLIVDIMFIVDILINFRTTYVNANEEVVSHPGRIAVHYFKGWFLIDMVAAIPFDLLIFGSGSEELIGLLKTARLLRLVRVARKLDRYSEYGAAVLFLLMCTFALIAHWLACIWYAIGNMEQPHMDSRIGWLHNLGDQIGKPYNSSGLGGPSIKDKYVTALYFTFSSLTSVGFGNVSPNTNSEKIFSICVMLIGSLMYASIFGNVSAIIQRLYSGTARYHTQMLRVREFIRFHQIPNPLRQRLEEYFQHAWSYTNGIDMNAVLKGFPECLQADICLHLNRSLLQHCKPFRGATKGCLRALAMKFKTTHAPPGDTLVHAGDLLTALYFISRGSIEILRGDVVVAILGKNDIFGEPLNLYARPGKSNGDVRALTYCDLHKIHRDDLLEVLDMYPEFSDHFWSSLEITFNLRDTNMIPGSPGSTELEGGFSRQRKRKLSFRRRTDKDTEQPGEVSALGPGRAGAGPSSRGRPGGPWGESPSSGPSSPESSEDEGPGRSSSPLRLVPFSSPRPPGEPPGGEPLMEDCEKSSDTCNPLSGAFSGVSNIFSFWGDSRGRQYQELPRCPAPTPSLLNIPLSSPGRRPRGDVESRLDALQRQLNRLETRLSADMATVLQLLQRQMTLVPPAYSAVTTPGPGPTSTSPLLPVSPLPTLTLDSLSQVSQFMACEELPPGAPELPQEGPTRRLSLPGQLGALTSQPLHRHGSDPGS

The assay has as its target human ether-à-go-go-related gene (hERG) potassium channel (human, UniProt Q12809). Nature of the assay: primary screen, population patch clamp on CHO cells stably expressing hERG.
`CC(C)(C)OC(=O)N1CCN(C(=O)c2cccnc2Cl)CC1`: the “hERG current change (%, negative = inhibition) at 1uM” value turned out to be 14.2%.

Regarding `Cc1cc(C)nc(N/N=C/c2ccc3c(c2)OCCO3)n1`, the “hERG current change (%, negative = inhibition) at 1uM” value worked out at 14.9%.

Take `CC(C)NC(=O)CC(=O)NN=C1CCCCC1`: the “hERG current change (%, negative = inhibition) at 1uM” value was determined as 9.96%.

For the compound `N/C(COc1ccc(F)cc1)=N\NC(=O)c1cccnc1Oc1ccccc1`, the “hERG current change (%, negative = inhibition) at 1uM” value is -14.1%.

`CCC1(C)Cc2ccccc2-c2nc3n(c(=O)c21)CCS3` (stereo not shown): the “hERG current change (%, negative = inhibition) at 1uM” value turned out to be 12%.

For the compound `CCCCCc1cc(=O)oc2c(C(CCN(CC)CC)c3cc(OC)c(OC)c(OC)c3)c(OC)cc(OC)c12` (stereo not shown), the “hERG current change (%, negative = inhibition) at 1uM” value is listed as 5.72%.

For the compound `CCN(c1ccccc1)S(=O)(=O)c1ccc(C(=O)Nc2nnc(COC)o2)cc1`, the “hERG current change (%, negative = inhibition) at 1uM” value was 10.7%.

As to `COc1ccccc1CNC(=O)COn1nnc2ccc(S(=O)(=O)N3CCOCC3)cc21`, the “hERG current change (%, negative = inhibition) at 1uM” value amounted to 15.8%.

For `COc1ccc(NC(=S)N2CCN(c3ccccn3)CC2)cc1`, the “hERG current change (%, negative = inhibition) at 1uM” value is recorded as 3.66%.

For the compound `Cc1cc(C)n(C(=O)CCCn2cc([N+](=O)[O-])cn2)n1`, the “hERG current change (%, negative = inhibition) at 1uM” value is recorded as -3.73%.

As to `O=C(O)CSc1nnc(CNc2cccc(C(F)(F)F)c2)n1Cc1ccco1`, the “hERG current change (%, negative = inhibition) at 1uM” value is on record as 9.85%.

Take `Cc1cc(C=O)c2c(c1)C=CC1(Oc3ccccc3C(=O)N1C)O2` (stereo not shown): the “hERG current change (%, negative = inhibition) at 1uM” value was 9.99%.

With `O=C(CN1C(=O)C2C3C=CC(C3)C2C1=O)Nc1ccc(F)cc1` (stereo not shown), the “hERG current change (%, negative = inhibition) at 1uM” value was determined as 11.2%.

As to `C/C(CC(=O)Nc1ccc(F)cc1)=N\NC(=O)Cc1csc(N)n1`, the “hERG current change (%, negative = inhibition) at 1uM” value is given as 16.1%.

`O=C(NN1C(=O)C2C(C1=O)C1C=CC2C12CC2)c1cccnc1` (stereo not shown): the “hERG current change (%, negative = inhibition) at 1uM” value is 17.2%.

Turning to `O=C(Nc1ccc(Cl)c(Cl)c1)c1ccc(Cl)c(Cl)c1`, the “hERG current change (%, negative = inhibition) at 1uM” value is -4.94%.

As to `O=C(Cc1cccs1)NCc1cc(Cl)cc(Cl)c1`, the “hERG current change (%, negative = inhibition) at 1uM” value is 8.81%.

As for `O=C(Nc1cccc2ccccc12)/C(Cl)=C/c1ccccc1`, the “hERG current change (%, negative = inhibition) at 1uM” value is 3.37%.

For the compound `CN(C)S(=O)(=O)c1ccc(N2CCOCC2)c(C(=O)O)c1`, the “hERG current change (%, negative = inhibition) at 1uM” value came to 6.17%.

With `COc1ccc(-n2cnnc2SCC(=O)Nc2cc(S(=O)(=O)N3CCCCC3)ccc2C)cc1`, the “hERG current change (%, negative = inhibition) at 1uM” value is -11%.

With `CC(C)C(=O)Nc1ccc(NC(=O)c2ccc(COc3ccccc3)cc2)cc1`, the “hERG current change (%, negative = inhibition) at 1uM” value amounted to 13%.

For the compound `CCCC(=O)Nc1nc2ccc(OCC)cc2s1`, the “hERG current change (%, negative = inhibition) at 1uM” value is reported as 10.6%.

Consider `O=C(CN1C(=O)NC2(CCCCCC2)C1=O)N1CCN(S(=O)(=O)c2ccc(Cl)cc2)CC1`, for which the “hERG current change (%, negative = inhibition) at 1uM” value is reported as 0.438%.

As to `O=C(Nc1ccccc1N1CCCC1)C1=COCCO1`, the “hERG current change (%, negative = inhibition) at 1uM” value is recorded as 4.82%.

As for `C/C(=N\NC(=O)CCCCCNC(=O)c1ccccc1)c1ccccc1O`, the “hERG current change (%, negative = inhibition) at 1uM” value was 4.55%.

For the origin of these results see paper PMC4336329 (PLoS ONE, 2015).
